Measurements reported in article PMC12820563.
The other results are listed elsewhere or left out. The list includes weakly bound sequences.

Each sequence was assayed against T1, MBP-FoxP3dN (UniProt Q99JB6) (assay: PD-seq (MBP pull-down with sequencing)). Details: 20 mM Tris-HCl pH 7.5, 100 mM NaCl, 1.5 mM MgCl2, 0.4 uM protein, 0.1 uM dsDNA library, 30 min, room temperature, amylose pull-down; high values mean tight binding; double strand, one strand shown.
T1 sequence: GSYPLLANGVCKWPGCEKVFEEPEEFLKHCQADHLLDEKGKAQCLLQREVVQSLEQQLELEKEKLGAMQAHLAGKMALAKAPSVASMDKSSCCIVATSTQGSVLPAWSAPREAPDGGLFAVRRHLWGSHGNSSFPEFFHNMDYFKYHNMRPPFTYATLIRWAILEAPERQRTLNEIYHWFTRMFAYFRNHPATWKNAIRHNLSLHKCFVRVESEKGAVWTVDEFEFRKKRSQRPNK
With “GATGATTGTTCTCCCAGCTGATGAATTCTGCGTTTCGAGTAAACAAATTTTCCTAATCTTTCTGTTCAAGCGCCATCTAC” the binding signal (RPM ratio (pull-down/input)) was 4.05.
Sequence “GATGATTGTTCTCCCAGCTGATGAATTTGGTAGATCGAGTAAACAAATTTTCCTAATCTTTCTGTTCAAGCGCCATCTAC” has a binding signal (RPM ratio (pull-down/input)) of 0.388.
For “GATGATTGTTCTCCCAGCTGATGAATTTGCAGCATCGAGTAAACAAATTTTCCTAATCTTTCTGTTCAAGCGCCATCTAC”, the binding signal (RPM ratio (pull-down/input)) was 1.6.
Sequence “GATGATTGTTCTCCCAGCTGATGAATTGGGGTGTTCGAGTAAACAAATTTTCCTAATCTTTCTGTTCAAGCGCCATCTAC” has a binding signal (RPM ratio (pull-down/input)) of 0.712.
“GATGATTGTTCTCCCAGCTGATGAATTAACAGGTTCGAGTAAACAAATTTTCCTAATCTTTCTGTTCAAGCGCCATCTAC” was tested, and the binding signal (RPM ratio (pull-down/input)) was 0.309.
“GATGATTGTTCTCCCAGCTGATGAATTGAAGGGGTCGAGTAAACAAATTTTCCTAATCTTTCTGTTCAAGCGCCATCTAC” was tested, and the binding signal (RPM ratio (pull-down/input)) was 0.278.
“GATGATTGTTCTCCCAGCTGATGAATTATTGGGCTCGAGTAAACAAATTTTCCTAATCTTTCTGTTCAAGCGCCATCTAC” gave a binding signal (RPM ratio (pull-down/input)) of 0.598.
For “GATGATTGTTCTCCCAGCTGATGAATTCGTTATATCGAGTAAACAAATTTTCCTAATCTTTCTGTTCAAGCGCCATCTAC”, the binding signal (RPM ratio (pull-down/input)) was 1.02.
In the case of “GATGATTGTTCTCCCAGCTGATGAATTTATTAGTTCGAGTAAACAAATTTTCCTAATCTTTCTGTTCAAGCGCCATCTAC”, the binding signal (RPM ratio (pull-down/input)) is reported as 5.47.
For “GATGATTGTTCTCCCAGCTGATGAATTCCGTGGATCGAGTAAACAAATTTTCCTAATCTTTCTGTTCAAGCGCCATCTAC”, the binding signal (RPM ratio (pull-down/input)) was 0.416.
“GATGATTGTTCTCCCAGCTGATGAATTCAGAATGTCGAGTAAACAAATTTTCCTAATCTTTCTGTTCAAGCGCCATCTAC” showed a binding signal (RPM ratio (pull-down/input)) of 0.45.
“GATGATTGTTCTCCCAGCTGATGAATTGCGGCACTCGAGTAAACAAATTTTCCTAATCTTTCTGTTCAAGCGCCATCTAC” was tested, and the binding signal (RPM ratio (pull-down/input)) was 0.922.
With “GATGATTGTTCTCCCAGCTGATGAATTCCTTATATCGAGTAAACAAATTTTCCTAATCTTTCTGTTCAAGCGCCATCTAC” the binding signal (RPM ratio (pull-down/input)) was 0.314.
“GATGATTGTTCTCCCAGCTGATGAATTCAGCCGTTCGAGTAAACAAATTTTCCTAATCTTTCTGTTCAAGCGCCATCTAC” was tested, and the binding signal (RPM ratio (pull-down/input)) was 0.668.
For “GATGATTGTTCTCCCAGCTGATGAATTTGATCATTCGAGTAAACAAATTTTCCTAATCTTTCTGTTCAAGCGCCATCTAC”, the binding signal (RPM ratio (pull-down/input)) was 0.627.
Work on “GATGATTGTTCTCCCAGCTGATGAATTTCCACAGTCGAGTAAACAAATTTTCCTAATCTTTCTGTTCAAGCGCCATCTAC” yielded a binding signal (RPM ratio (pull-down/input)) of 0.208.
“GATGATTGTTCTCCCAGCTGATGAATTCCAAGGTTCGAGTAAACAAATTTTCCTAATCTTTCTGTTCAAGCGCCATCTAC” gave a binding signal (RPM ratio (pull-down/input)) of 0.23.
“GATGATTGTTCTCCCAGCTGATGAATTGGCGCTATCGAGTAAACAAATTTTCCTAATCTTTCTGTTCAAGCGCCATCTAC” was tested, and the binding signal (RPM ratio (pull-down/input)) was 0.848.
Sequence “GATGATTGTTCTCCCAGCTGATGAATTCCTGTCATCGAGTAAACAAATTTTCCTAATCTTTCTGTTCAAGCGCCATCTAC” has a binding signal (RPM ratio (pull-down/input)) of 0.482.
“GATGATTGTTCTCCCAGCTGATGAATTTTTGCCCTCGAGTAAACAAATTTTCCTAATCTTTCTGTTCAAGCGCCATCTAC” gave a binding signal (RPM ratio (pull-down/input)) of 0.483.
“GATGATTGTTCTCCCAGCTGATGAATTGTTGCGGTCGAGTAAACAAATTTTCCTAATCTTTCTGTTCAAGCGCCATCTAC” showed a binding signal (RPM ratio (pull-down/input)) of 2.29.
Sequence “GATGATTGTTCTCCCAGCTGATGAATTCATGTAATCGAGTAAACAAATTTTCCTAATCTTTCTGTTCAAGCGCCATCTAC” has a binding signal (RPM ratio (pull-down/input)) of 0.759.
“GATGATTGTTCTCCCAGCTGATGAATTTGGCTCCTCGAGTAAACAAATTTTCCTAATCTTTCTGTTCAAGCGCCATCTAC” showed a binding signal (RPM ratio (pull-down/input)) of 0.863.
In the case of “GATGATTGTTCTCCCAGCTGATGAATTAGCTACTTCGAGTAAACAAATTTTCCTAATCTTTCTGTTCAAGCGCCATCTAC”, the binding signal (RPM ratio (pull-down/input)) is reported as 0.488.
For “GATGATTGTTCTCCCAGCTGATGAATTATCCTATTCGAGTAAACAAATTTTCCTAATCTTTCTGTTCAAGCGCCATCTAC”, the binding signal (RPM ratio (pull-down/input)) was 0.332.
Sequence “GATGATTGTTCTCCCAGCTGATGAATTGACACGGTCGAGTAAACAAATTTTCCTAATCTTTCTGTTCAAGCGCCATCTAC” has a binding signal (RPM ratio (pull-down/input)) of 0.311.
“GATGATTGTTCTCCCAGCTGATGAATTGCGCAACTCGAGTAAACAAATTTTCCTAATCTTTCTGTTCAAGCGCCATCTAC” gave a binding signal (RPM ratio (pull-down/input)) of 6.43.
Sequence “GATGATTGTTCTCCCAGCTGATGAATTGAATGCGTCGAGTAAACAAATTTTCCTAATCTTTCTGTTCAAGCGCCATCTAC” has a binding signal (RPM ratio (pull-down/input)) of 1.34.
With “GATGATTGTTCTCCCAGCTGATGAATTATGCGCCTCGAGTAAACAAATTTTCCTAATCTTTCTGTTCAAGCGCCATCTAC” the binding signal (RPM ratio (pull-down/input)) was 2.82.
With “GATGATTGTTCTCCCAGCTGATGAATTAGCCAAGTCGAGTAAACAAATTTTCCTAATCTTTCTGTTCAAGCGCCATCTAC” the binding signal (RPM ratio (pull-down/input)) was 0.184.
Work on “GATGATTGTTCTCCCAGCTGATGAATTCACCTCCTCGAGTAAACAAATTTTCCTAATCTTTCTGTTCAAGCGCCATCTAC” yielded a binding signal (RPM ratio (pull-down/input)) of 0.309.
Work on “GATGATTGTTCTCCCAGCTGATGAATTCTTGTGATCGAGTAAACAAATTTTCCTAATCTTTCTGTTCAAGCGCCATCTAC” yielded a binding signal (RPM ratio (pull-down/input)) of 0.524.
